Consider 55 molecules from article PMC4336329 (PLoS ONE, 2015).

Out of some 310,000 compounds screened, about 2,200 (0.71%) showed an effect of 50% or more. The effect is printed as a negative number. The list shows a part of the results.

Chain of human ether-à-go-go-related gene (hERG) potassium channel (Q12809 whole entry, looked up): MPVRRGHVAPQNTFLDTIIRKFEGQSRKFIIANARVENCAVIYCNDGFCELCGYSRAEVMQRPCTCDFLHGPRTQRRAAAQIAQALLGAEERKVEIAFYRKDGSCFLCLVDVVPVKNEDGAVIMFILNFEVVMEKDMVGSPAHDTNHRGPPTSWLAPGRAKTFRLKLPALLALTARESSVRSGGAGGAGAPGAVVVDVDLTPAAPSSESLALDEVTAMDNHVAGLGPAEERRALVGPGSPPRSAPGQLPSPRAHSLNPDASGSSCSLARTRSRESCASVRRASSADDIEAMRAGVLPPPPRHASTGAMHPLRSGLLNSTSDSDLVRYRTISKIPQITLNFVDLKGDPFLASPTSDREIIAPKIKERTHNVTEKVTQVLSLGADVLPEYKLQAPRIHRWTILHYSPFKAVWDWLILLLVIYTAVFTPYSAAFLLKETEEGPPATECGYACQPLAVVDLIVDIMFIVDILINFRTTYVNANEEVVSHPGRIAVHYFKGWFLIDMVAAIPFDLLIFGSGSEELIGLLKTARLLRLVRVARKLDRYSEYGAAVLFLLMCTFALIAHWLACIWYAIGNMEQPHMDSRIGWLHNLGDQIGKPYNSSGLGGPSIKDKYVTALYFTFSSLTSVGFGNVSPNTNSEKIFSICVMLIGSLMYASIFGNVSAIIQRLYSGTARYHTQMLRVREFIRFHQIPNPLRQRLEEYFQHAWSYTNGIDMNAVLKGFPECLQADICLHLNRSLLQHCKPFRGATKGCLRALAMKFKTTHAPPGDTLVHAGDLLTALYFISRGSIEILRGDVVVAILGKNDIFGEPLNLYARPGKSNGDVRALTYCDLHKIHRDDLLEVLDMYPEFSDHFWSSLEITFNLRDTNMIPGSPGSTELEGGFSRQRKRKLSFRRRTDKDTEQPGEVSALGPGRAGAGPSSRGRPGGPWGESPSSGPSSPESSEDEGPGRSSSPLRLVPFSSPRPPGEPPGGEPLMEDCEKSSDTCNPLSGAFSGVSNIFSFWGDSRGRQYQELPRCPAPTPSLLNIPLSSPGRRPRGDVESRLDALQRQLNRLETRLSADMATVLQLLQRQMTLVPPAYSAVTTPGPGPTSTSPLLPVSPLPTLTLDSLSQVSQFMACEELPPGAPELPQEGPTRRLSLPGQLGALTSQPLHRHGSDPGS

This assay has as its target human ether-à-go-go-related gene (hERG) potassium channel (human, UniProt Q12809). Put plainly: primary screen, population patch clamp on CHO cells stably expressing hERG.
Take `COC(=O)CSc1c(-c2ccccc2)c2cc(Cl)ccc2[nH]c1=O`: the “hERG current change (%, negative = inhibition) at 1uM” value came out at 10.3%.
The value for `CCOC(=O)C(C(=O)OCC)C1CS(=O)(=O)CC1C(C(=O)OCC)C(=O)OCC` (stereo not shown) was 14.8%.
For `CCCCc1nc(NCCNC(=O)c2ccccc2)c(C#N)c2c1CSC(C)(C)C2`, the “hERG current change (%, negative = inhibition) at 1uM” value turned out to be 11.8%.
For `CNc1nc(Oc2ccc(C(=O)OC)cc2)nc(SC)n1` the value was 10.4%; for `Cn1c(SCc2cccc(C(F)(F)F)c2)nnc1-c1ccco1`, 1.63%; for `CS(=O)(=O)c1nc(S(=O)(=O)c2ccc(Cl)cc2)c(N2CCCCC2)s1`, 13.9%.
For `CCOC(=O)c1ccc(NC(=S)N2CCN(CCN=CC3=C(O)CC(C)(C)CC3=O)CC2)cc1` the value was -6.51%; for `O=C(c1cccc(F)c1)N1CCN(c2ccc([N+](=O)[O-])c(N3CCCCC3)c2)CC1`, 2.24%; for `COCCN1C(=O)c2cc(C(=O)Nc3ccc(OC)c(OC)c3)ccc2C1Nc1ccc(OC)c(OC)c1` (stereo not shown), 7.78%.
For `CCOC(=O)c1c(NC(=O)CN2C(=O)NC3(CCCCC3)C2=O)sc(C)c1-c1ccc(C)cc1` the value was 8.67%; for `O=c1[nH]cnc2c1c(-c1ccccc1)cn2-c1ccccc1`, 8.09%.
On to `O=C(CN1CCCC1)Nc1nc(-c2ccc3c(c2)CCN3C(=O)c2ccccc2F)cs1`, for which the “hERG current change (%, negative = inhibition) at 1uM” value stood at 9.78%.
For `O=C(COC(=O)C1CC1)Nc1ncc(Cl)cc1Cl` the value was 13%.
For the molecule `C/C(O)=C(\N=Nc1cc(C)ccc1O)C(N)=O`, the “hERG current change (%, negative = inhibition) at 1uM” value is listed as 6.16%.
Regarding `N#C/C(=C\c1ccc[nH]1)C(=O)Nc1ccccc1F`, the “hERG current change (%, negative = inhibition) at 1uM” value is on record as 10.2%.
For `CC(NC(=O)c1ccc(OC2CCN(C(=O)c3cccnc3)CC2)cc1)C1CC1` (stereo not shown) the value was 10.7%; for `COC(=O)C1=C(c2ccc(S(C)(=O)=O)cc2)C[C@@H]2CC[C@H]1N2C(=O)NCCNC(C)=O`, 14.5%; for `Cc1cc(C)n(-c2ccc(Cl)c(C(=O)O)n2)n1`, -0.602%.
With `CC(=O)Nc1ccc(NC(=O)C(C)OC(=O)/C=C/c2ccc3c(c2)OCO3)cc1` (stereo not shown), the “hERG current change (%, negative = inhibition) at 1uM” value is -5.72%.
The value for `COCC1CCCN(C(=O)c2cc(COc3ccc(C(C)=O)cc3)on2)C1` (stereo not shown) was 18.2%.
For `Cc1ccc(-n2c(SCC(=O)NCCN3C(=O)CSC3=O)nnc2-c2ccccc2)cc1C` the value was -1.61%; for `COc1ccc(-c2nnnn2CCc2ccccc2)cc1`, 9.62%.
The value for `CC1CCN(c2nc(-c3ccccc3)c(C#N)c(=O)[nH]2)CC1` was 17%; that for `Cc1ccc(-n2ncc(C(=O)Nc3ccc(Cl)cc3)c2C2CCNCC2)cc1C.Cl` was -43%.
For the molecule `Cc1ccc(C)c(S(=O)(=O)N2CCN(C(=O)c3sccc3C)CC2)c1`, the “hERG current change (%, negative = inhibition) at 1uM” value is -9.96%.
For `COCCn1nnnc1CN1CCC(NC(=O)c2ccc(Br)cc2)CC1` the value was -9.13%; for `O=c1c(C=NCCCn2ccnc2)c(-c2ccccc2)[nH]n1-c1nc2ccccc2s1`, -26.9%.
The value for `CC(=O)c1ccc(NC(=O)CSCCO)cc1` was 17.7%.
For `Cc1cc(=O)[nH]c(N/N=C/c2cccc([N+](=O)[O-])c2)n1` the value was 9.49%.
In the case of `O=C1CNC(=O)/C1=C/c1ccccc1`, the “hERG current change (%, negative = inhibition) at 1uM” value is on record as 14.9%.
For `O=C(CSc1nncc2ccccc12)N1CCOCC1` the value was 7.48%; for `Cc1cccc(C)c1NC(=O)CN(C)C(=O)CN1C(=O)NC2(CCCC2)C1=O`, -0.608%.
The value for `CCN1C(=O)[C@H]2[C@@H](c3ccc(-c4cccc(Cl)c4)c(OC)c3)N[C@@](Cc3ccccc3)(C(=O)OC)[C@H]2C1=O.O=C(O)C(F)(F)F` was 15%; that for `COc1ccc(CNc2ncnc3sccc23)cc1` was 9.36%.
For `Cc1cc(C(=O)COC(=O)C(C)NC(N)=O)c(C)n1Cc1ccco1` (stereo not shown) the value was 11.2%; for `CCOC(=O)CSc1n[nH]c(NC(=O)CC)n1`, 9.05%; for `COc1ccc(OC)c(-c2csc(N(CC3CCCO3)C(=O)C3CCCCC3)n2)c1` (stereo not shown), 9.03%.
With `CC(C)n1nnc2c(=O)oc3ccccc3c21`, the “hERG current change (%, negative = inhibition) at 1uM” value was determined as 7.15%.
With `CCN1C(=O)N(C(C)=O)C2C1N(C(C)=O)C(=O)N2C(C)=O` (stereo not shown), the “hERG current change (%, negative = inhibition) at 1uM” value amounted to 14%.
On to `N#CC1=C(N)Oc2c(sc3ccccc23)C1c1ccco1` (stereo not shown), for which the “hERG current change (%, negative = inhibition) at 1uM” value was found to be 4.37%.
The value for `COc1ccc(C(CNC(=O)C(CCSC)NC(=O)c2ccccc2Cl)N2CCCCC2)cc1` (stereo not shown) was -8.45%; that for `Cc1nonc1OCCn1c([N+](=O)[O-])cnc1C` was 11.6%.
The value for `CN1CCN(c2oc(-c3ccc([N+](=O)[O-])cc3)nc2C#N)CC1` was -26.2%.
The value for `Cc1ccccc1NC(=O)CSc1nc2ncc(Cl)cc2[nH]1` was 10.3%; that for `Cc1ccc(S(=O)(=O)N2CCN(Cc3cccnc3)CC2)cc1` was 3.83%; that for `C/C(=N/NC(=O)c1ccccn1)c1c[nH]c2ccccc12` was 11.4%.
As for `COc1ccc(NS(=O)(=O)c2ccc(S(=O)(=O)N(C)C)cc2)cc1S(N)(=O)=O`, the “hERG current change (%, negative = inhibition) at 1uM” value turned out to be 16.4%.
For `Cc1cc(NC(=O)CSc2nnc(C3COc4ccccc4O3)o2)no1` (stereo not shown) the value was 3.22%; for `CCCn1c2ccccc2c2nnc(SCC(=O)OC)nc21`, 9.41%; for `Cc1ccc2c(CC(=O)NCC3COc4ccccc4O3)coc2c1` (stereo not shown), 3.48%.
For `Cc1cccc(-c2cnn(-c3cccc([N+](=O)[O-])c3)c2N)c1` the value was 7.27%.
For `Cc1ccc(-c2csc(NC(=O)COc3ccc(N(C)S(=O)(=O)c4ccc(C)cc4)cc3)n2)cc1` the value was 17.4%; for `Nc1c(C(=O)c2ccccc2)sc(Nc2ccccc2)c1S(=O)(=O)c1ccccc1`, -19.3%.
`O=C(O)c1ccccc1CSc1ncccc1C(=O)O`: the “hERG current change (%, negative = inhibition) at 1uM” value was 19.4%.
For `CCC(C)NC(=O)CSc1nc2c(sc3ccccc32)c(=O)n1CCCN1CCOCC1` (stereo not shown) the value was -3.27%.
